Laboratory results reported in PubChem BioAssay (NCATS).
Several values for one entry are separate records, joined by “and”; a condition that tells them apart may be missing. Equal entries are not always repeated. The shares of active, inactive and inconclusive entries below differ from those in the screen. For part of these data: Potencies beside an inconclusive call are fits to weak or partial responses and may not hold up. Activity calls are given as the source filed them. Unless noted, calls follow the shape of the dose curve; as a rule, active = well fitted curve in the direction sought with a large enough effect; inconclusive = small, poorly fitted or top-dose-only effect, or another doubt; inactive = no such curve, though single readings can be large; an effect the other way counts as inactive or inconclusive.

Assays:
[1] = Primary qHTS for small molecule stabilizers of the endoplasmic reticulum resident proteome: Secreted ER Calcium Modulated Protein (SERCaMP) assay (AID 1508630); details: SH-SY5Y GLuc-SERCaMP (Gaussia luciferase released on ER calcium loss) secretion, thapsigargin, luminescence; activity change, negative = inhibition: at 38.4 µM (top of the series)
How it was run: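 The SH-SY5Y reporter protocol was run at 3 concentrations up to 38.3 uM (primary) or 11 concentrations (follow-up): 16 h compound, 100 nM thapsigargin for 4 h, then extracellular luciferase luminescence.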

[2] = Primary qHTS for inhibitors of nuclear receptor binding SET domain protein 2 (NSD2) in an isogenic RCH-ACV NSD2 p.E1099K mutant (9B) (AID 1645876); details: RCH-ACV NSD2 E1099K (9B) viability, CellTiter-Glo, 72 h; series mostly up to 44.9 µM; also: nearly all actives have a fitted effect of over 70% in size
[3] = Primary qHTS for inhibitors of nuclear receptor binding SET domain protein 2 (NSD2) in an RCH-ACV wild type WT cells (2C) (AID 1645877); details: RCH-ACV (leukaemia line) NSD2 WT (2C) viability, CellTiter-Glo, 72 h; activity change, negative = cell killing: at 44.9 µM (top of the series); series mostly up to 44.9 µM; also: nearly all actives have a fitted effect of over 70% in size
[4] = system: HEK293; test: Cytotoxic Profiling of Annotated Libraries Using Quantitative High-Throughput Screening (AID 1296008); details: Five cell lines viability, CellTiter-Glo ATP luminescence, 48-72 h; max response: stronger effect = lower value; also: nearly all actives have a fitted effect of over 60% in size; as to max response: % is scaled to controls: 0 for no effect and ±100 for the full control effect
How it was run: (§1)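 Cytotoxicity was measured as CellTiter-Glo ATP luminescence, read after 10 min at room temperature. Compound treatment of the cells lasted 48 or 72 hr at 37 degrees Celsius in a qHTS format.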

[5] = Drug repurposing screens with cells derived from glioblastoma tumor samples (AID 1345199); details: GBM patient neurospheres viability, ATP luminescence, 48 h; Potency: tumour line A unless noted; activity, negative = cell killing: at 46 µM (top of the series), tumour line A unless noted; also: nearly all actives have a fitted effect of over 40% in size; as to activity, negative = cell killing: % is scaled to controls: 0 for no effect and ±100 for the full control effect
How it was run: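 Primary testing used CD133+ neurospheres from four GBM patients, seven concentrations, 48 h exposure and ATP-based viability; confirmation added three slower-growing patient lines.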

[6] = qHTS of pediatric cancer cell lines to identify multiple opportunities for drug repurposing: Primary screen for NB-EBc1 cells (AID 1347095); details: NB-EBc1 neuroblastoma viability, CellTiter-Glo luminescence, 48 h; series mostly up to 46 µM;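 as to activity change, negative = cytotoxic: plate controls were DMSO neutral control for no effect and bortezomib for full effect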
How it was run: (§2)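 Viability was measured as metabolically active cells after 48 hours of treatment, read by CellTiter-Glo luminescence. Compounds were tested at multiple final concentrations, giving concentration-response curves.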

[7] = qHTS of pediatric cancer cell lines to identify multiple opportunities for drug repurposing: Primary screen for Saos-2 cells (AID 1347097); details: Saos-2 viability, CellTiter-Glo ATP luminescence, 48 h; activity change, negative = cytotoxic: at 46 µM (top of the series); also: nearly all actives have a fitted effect of over 40% in size; as to activity change, negative = cytotoxic: % is scaled to controls: 0 for no effect and ±100 for the full control effect
How it was run: as §2

[8] = qHTS of pediatric cancer cell lines to identify multiple opportunities for drug repurposing: Primary screen for OHS-50 cells (AID 1347103); details: OHS-50 osteosarcoma viability, CellTiter-Glo luminescence, 48 h; series mostly up to 57.3 µM; also: nearly all actives have a fitted effect of over 40% in size
How it was run: (§3)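 Cells (500-1,000/well) rested 5 h, then received compounds for 48 h; metabolically active cells were measured by CellTiter-Glo luminescence. Final concentrations spanned up to 46 µM (MIPE, 11-point) or 0.59 nM-46 µM (NPC, 8-point) in primary screens, 11-point in follow-ups.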

[9] = system: WaGa; test: qHTS assay to identify novel small-molecules to repurpose for Merkel cell carcinoma treatment (AID 1296009); details: MCC and control cell lines, CellTiter-Glo viability, 72 h; series mostly up to 46 µM; also: nearly all actives have a fitted effect of over 60% in size
How it was run: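 Cell viability, measured as CellTiter-Glo luminescence, was normalized between DMSO and no-cell wells. The cells had been exposed to 8- or 11-point compound dilutions for 72 hr at 37 degree celsius.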

[10] = P-glycoprotein substrates identified in KB-8-5-11 adenocarcinoma cell line, qHTS therapeutic library screen (AID 1346987); details: KB-8-5-11 (P-gp overexpressing) viability, CellTiter-Glo, 72 h; series mostly up to 44.5 µM; also: nearly all actives have a fitted effect of over 65% in size
How it was run: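 Luminescence from CellTiter-Glo, read 5 min after addition, quantified survival of KB-8-5-11 (P-gp-overexpressing) cells exposed to compounds for 72 h. AC50 was derived from concentration-response curves.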

[11] = system: NIH3T3; test: Cytotoxic Profiling of Annotated Libraries Using Quantitative High-Throughput Screening (AID 1296008); details: Five cell lines viability, CellTiter-Glo ATP luminescence, 48-72 h; max response: stronger effect = lower value; also: nearly all actives have a fitted effect of over 60% in size; as to max response: % is scaled to controls: 0 for no effect and ±100 for the full control effect
How it was run: as §1

[12] = system: Zika virus NS2B-NS3 protease (unlinked complex); test: Primary screen GU Rhodamine qHTS for Zika virus inhibitors: Unlinked NS2B-NS3 protease assay (AID 1347159); details: Recombinant ZIKV NS2B-NS3 protease, Rhodamine110 substrate fluorescence; series mostly up to 107 µM; also: nearly all actives have a fitted effect of over 60% in size
How it was run: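 Percent inhibition came from the 15-min rise in Rhodamine110 fluorescence (1.5 microM substrate, ~15% conversion), normalized to no-inhibitor and no-enzyme wells and Hill-fitted. Unlinked protease, 25 nM, pH 8.0 Tris buffer; compounds up to 114 microM, 15-min preincubation.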

[13] = Primary redox qHTS assay for identification of artifact compounds. (AID 1845223); details: Amplex Red/HRP redox cycling with DTT, fluorescence; series mostly up to 53.8 µM
How it was run: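 Redox-cycling detection via DTT (250 uM final) oxidation coupled to Amplex Red (25 uM)/HRP (250 mU/mL) in HBSS. 15 min preincubation plus 30 min after DTT, room temperature. Ex/Em 525/598 nm; 4-parameter Hill fit against DMSO and 10 uM DA3003.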

[14] = qHTS of pediatric cancer cell lines to identify multiple opportunities for drug repurposing: Primary screen for SK-N-SH cells (AID 1347098); details: SK-N-SH viability, CellTiter-Glo luminescence, 48 h; activity change, negative = cytotoxic: at 57 µM (top of the series); also: nearly all actives have a fitted effect of over 65% in size
How it was run: as §3

[15] = A High-Content qHTS Against Drug Library for the Identification of Small Molecules that Inhibit DYT1 Early Onset Primary Dystonia-Associated Cell Pathology (AID 1645839; calls by dose curve); details: HEK293 Flp-In EGFP-delE TorsinA, punctate imaging, 48 h; series mostly up to 46.1 µM
How it was run: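 High-content imaging quantified EGFP-TorsinA mislocalization in HEK293-derived cells inducibly expressing DYT1 mutant torsinA, after 48 h exposure to compound given together with tetracycline induction. Cell count served as a toxicity channel alongside %pathology.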

[16] = system: SKOV3; test: Primary qHTS to identify gynecologic anti-cancer compounds using libraries of approved drugs and bioactive compounds (AID 1345084); details: Gynecologic cancer cell panel viability, ATPlite luminescence, 48 h; series mostly up to 57.5 µM; also: nearly all actives have a fitted effect of over 55% in size
How it was run: (§4)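 Cell viability after 48 h drug treatment, ATPlite luminescence readout; five doses.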

[17] = system: OV90; test: as above; details: Gynecologic cancer cell panel viability, ATPlite luminescence, 48 h; series mostly up to 57.5 µM
How it was run: as §4

[18] = qHTS of pediatric cancer cell lines to identify multiple opportunities for drug repurposing: Primary screen for SK-N-MC cells (AID 1347093); details: SK-N-MC viability, CellTiter-Glo luminescence, 48 h; activity change, negative = cytotoxic: at 46 µM (top of the series);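 as to activity change, negative = cytotoxic: plate controls were DMSO neutral control for no effect and bortezomib for full effect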
How it was run: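 Metabolically active cells were quantified by ATP-dependent luminescence (CellTiter-Glo, 15 min at room temperature) following 48 h treatment. Cells had been plated at 500-1,000 per well and settled for 5 h beforehand.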

[19] = qHTS of pediatric cancer cell lines to identify multiple opportunities for drug repurposing: Primary screen for BT-12 cells (AID 1347101); details: BT-12 viability, CellTiter-Glo luminescence, 48 h; series mostly up to 57.3 µM; also: nearly all actives have a fitted effect of over 25% in size
How it was run: as §3
Potency is read from the fitted curve at half-maximal effect; tags tell the direction and shape of the fitted curve.

## Cc1cccc(Nc2cc(Cl)nc(SCC(=O)O)n2)c1C
[1]
  Potency: inconclusive: 10 µM [inhibitor, partial curve, poor fit] and inconclusive: 2.24 µM [inhibitor, full curve]
[2]
  Potency: inconclusive: 29.9 µM [inhibitor, single point]
[3]
  Potency: inconclusive: 29.9 µM [inhibitor, single point]
[4]
  max response: inactive: 1.85% and inactive: -1.17%
[5]
  Potency: inactive

## COC(=O)C=CC(=O)OC
[6]
  Potency: inconclusive: 0.935 µM [cytotoxic, full curve]
[7]
  Potency: inactive
[8]
  Potency: inconclusive: 4.85 µM [cytotoxic, partial curve]
[1]
  Potency: inactive
[4]
  outcome: inactive
[9]
  Potency: inconclusive: 16.6 µM [inhibitor, partial curve]

## CN(C)CC(=O)Nc1ccc2[nH]c(=O)c3ccccc3c2c1
[10]
  Potency: inconclusive: 18.4 µM [inhibitor, single point]
[11]
  Potency: inconclusive: 20.6 µM [inhibitor, single point]

## CCN(CC)CCNC(=O)c1ccc(NC(C)=O)cc1
[6]
  Potency: inactive
[1]
  Potency: inactive
[4]
  max response: inactive: 3.23%
[9]
  Potency: inconclusive: 5.31 µM [inhibitor, single point]

## Cn1ncc2cc(-c3cnc(N)c(Cl)c3N3CCC4(CCNC4=O)CC3)ccc21
[12]
  Potency: inactive
[3]
  Potency: inconclusive: 81.7 nM [inhibitor, full curve] and active: 93.4 nM
[13]
  Potency: inactive

## OC(C#CCN1CCCC1)(c1ccccc1)c1ccccc1
[10]
  Potency: inconclusive: 13 µM [inhibitor, single point]
[4]
  Potency: inconclusive: 33.5 µM [inhibitor, single point]
[9]
  Potency: inactive
[5]
  Potency: active: 11.2 µM

## CCCCOC(=O)CC(CC(=O)OCCCC)(OC(C)=O)C(=O)OCCCC
[10]
  Potency: inconclusive: 23.1 µM [inhibitor, single point]
[14]
  Potency: inactive
[8]
  Potency: inconclusive: 21.9 µM [cytotoxic, partial curve, poor fit]
[2]
  Potency: inactive
[3]
  Potency: inconclusive: 16.8 µM [inhibitor, single point]
[4]
  Potency: inconclusive: 26.6 µM [inhibitor, partial curve, poor fit]
[9]
  Potency: inactive
[5]
  Potency: inconclusive: 11.2 µM [inhibitor, partial curve]

## CC1=CC(=O)[C@H]2C(C)(C)CCC[C@]2(C)[C@@]1(O)CO
[12]
  Potency: inconclusive: 28.2 µM [inhibitor, full curve, poor fit]
[3]
  Potency: inactive
[13]
  Potency: inconclusive: 33.6 µM [activator, partial curve, poor fit]

## c1ccc(C(O[C@H]2CCCN(CCc3ccc4c(c3)OCO4)C2)c2ccccc2)cc1
[10]
  Potency: inconclusive: 6.51 µM [inhibitor, full curve, poor fit]
[14]
  Potency: inconclusive: 13.7 µM [cytotoxic, partial curve]
[1]
  Potency: inconclusive: 25.1 µM [inhibitor, single point]
[15]
  Potency: inconclusive: 8.91 µM [inhibitor, partial curve]
[2]
  Potency: inconclusive: 26.6 µM [inhibitor, single point]
[3]
  Potency: inconclusive: 23.7 µM [inhibitor, single point]
[4]
  Potency: inconclusive: 33.5 µM [inhibitor, single point]
[9]
  Potency: inconclusive: 21.1 µM [inhibitor, single point]
[16]
  Potency: inactive

## N#Cc1ccc(N2N=C3c4ccc(C(=O)O)cc4CC[C@@H]3[C@@H]2C2CCCC2)cc1Cl
[10]
  Potency: inconclusive: 29.1 µM [inhibitor, single point]
[12]
  Potency: active: 1.41 µM
[2]
  Potency: inconclusive: 29 µM [inhibitor, partial curve, poor fit]
[3]
  Potency: inconclusive: 25.8 µM [inhibitor, partial curve, poor fit]
[17]
  Potency: inactive

## COc1cc2nc(Cl)nc(N)c2cc1OC
[18]
  Potency: inconclusive: 33.5 µM [cytotoxic, single point]
[14]
  Potency: inactive
[19]
  Potency: inconclusive: 19.5 µM [cytotoxic, partial curve, poor fit]
[2]
  Potency: inconclusive: 26.6 µM [inhibitor, single point]
[3]
  Potency: inconclusive: 26.6 µM [inhibitor, single point]
[9]
  Potency: inconclusive: 18.8 µM [inhibitor, single point]

## Cc1cccc(C)c1OCC(C)N (stereo unspecified)
[18]
  Potency: inactive
[6]
  Potency: inactive
[7]
  Potency: inconclusive: 15 µM [cytotoxic, single point]
[4]
  outcome: inactive
[9]
  Potency: inactive
[16]
  Potency: inconclusive: 11.2 µM [rising, partial curve, poor fit]
[5]
  Potency: inconclusive: 35.5 µM [inhibitor, partial curve]

## CNC(=O)c1cc(Oc2ccc(NC(=O)c3cccc(C(F)(F)F)c3)cc2)ccn1
[10]
  Potency: inconclusive: 18.4 µM [inhibitor, partial curve]
[2]
  Potency: inconclusive: 16.3 µM [inhibitor, single point]
[3]
  Potency: inconclusive: 20.5 µM [inhibitor, single point]
[16]
  Potency: inconclusive: 25.1 µM [cytotoxic, single point]
